Results: the supplement of paper PMC4166925
± gives the standard deviation of the averaged measurements. Whole data set: some 33,000 sequences, median “E-score (dimensionless, -0.5 to 0.5)” near -0.049, cut for the highest 2% near 0.37. Some of the results follow.

The sequences below were run on T1, PmTbr T-box DNA-binding domain (GST fusion) (assay: PBM E-score of 8-mer (E-score (dimensionless, -0.5 to 0.5)); Tbr is Tbrain of the sea star Patiria miniata (Pm) or the sea urchin Strongylocentrotus purpuratus (Sp); higher = stronger binding preference; most listed sequences are background and not binding sites). Settings: the construct has about 5 more residues each side.
T1 sequence: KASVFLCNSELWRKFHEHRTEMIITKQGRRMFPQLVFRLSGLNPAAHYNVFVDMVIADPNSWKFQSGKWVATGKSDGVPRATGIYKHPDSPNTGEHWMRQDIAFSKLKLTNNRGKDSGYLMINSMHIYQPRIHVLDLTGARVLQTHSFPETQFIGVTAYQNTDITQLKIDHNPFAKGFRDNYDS
Experimental: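 Universal protein-binding microarray (Agilent AMADID 016060, 60-bp probes with a 35-bp variable region) incubated with 200 nM GST-fused Patiria miniata Tbr T-box DNA-binding domain (residues 272-466) in PBS pH 7.5. Scored for every ungapped 8-mer (given with its reverse complement) by the Universal PBM Analysis Suite as E-score (modified Wilcoxon-Mann-Whitney enrichment, range -0.5 to 0.5; >0.45 counts as bound) and Z-score of median probe intensity. Two replicate arrays (datasets 1 and 2).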
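Also: 200 nM protein in PBS on universal arrays averaged over duplicate arrays.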

Row | Sequence | PBM E-score of 8-mer
1 | CGGGGTGC | 0.28 ± 0.024
2 | CTGCTGTA | -0.129 ± 0.066
3 | GAGATGTA | -0.204 ± 0.084
4 | GAAGAAGA | -0.259 ± 0.027
5 | CCTGCTTA | 0.0896 ± 0.0013
6 | AAACTGCT | 0.147 ± 0.088
7 | CTTGTTAA | 0.236 ± 0.09
8 | AACTGCCT | -0.00639 ± 0.041
9 | ATCCCCTC | -0.00477 ± 0.043
10 | CGTACGAA | 0.048 ± 0.031
11 | AAACTGTC | 0.16 ± 0.056
12 | ACTTTCTC | 0.166 ± 0.13
13 | GTCGATCA | 0.00814 ± 0.021
14 | GCCCGGTA | -0.271 ± 0.056
15 | GGTTTCAA | -0.126 ± 0.099
16 | ATTCGTTA | 0.111 ± 0.0073
17 | AATCTTGA | -0.0656 ± 0.025
18 | CGTAAATA | -0.21 ± 0.062
19 | ATTTTCCG | -0.111 ± 0.017
20 | ATTGAGCG | 0.106 ± 0.022
21 | CGGACTGC | 0.0114 ± 0.052
22 | AATGCATG | -0.16 ± 0.068
23 | CAGTTAAC | 0.0644 ± 0.026
24 | GCTGCCCC | -0.145 ± 0.0076
25 | AGGCATGG | -0.326 ± 0.036

Row | Sequence | PBM E-score of 8-mer
26 | ACCCATAA | 0.0467 ± 0.0045
27 | AGATCGAG | -0.0944 ± 0.065
28 | GCCCCCTA | -0.159 ± 0.066
29 | AGTGCCTG | -0.0756 ± 0.078
30 | AGCATGCC | -0.223 ± 0.041
31 | GGAAGTCA | -0.0518 ± 0.11
32 | CGCCCGCA | -0.0304 ± 0.051
33 | CACGCTAA | 0.233 ± 0.028
34 | AATGCTTA | -0.147 ± 0.038
35 | GGGGTCAA | -0.137 ± 0.12
36 | AAACGAGA | -0.232 ± 0.011
37 | TGGCAGAA | -0.106 ± 0.0079
38 | CCCTGTTC | -0.123 ± 0.046
39 | GATCCCCA | 0.0461 ± 0.12
40 | CGAATCTA | -0.072 ± 0.023
41 | CAACTGGG | -0.0457 ± 0.021
42 | GAGCACAC | -0.0489 ± 0.053
43 | ATCTCGCG | 0.285 ± 0.0059
44 | CTTCCAAG | -0.215 ± 0.039
45 | GTTGCATA | -0.0721 ± 0.021
46 | AAGCCATG | -0.192 ± 0.026
47 | ATGTTAAC | 0.161 ± 0.015
48 | AGTCTCAG | -0.179 ± 0.013
49 | ATCTACTA | -0.199 ± 0.014
50 | ACTGTTTA | 0.0158 ± 0.027

Row | Sequence | PBM E-score of 8-mer
51 | GACACCGA | 0.286 ± 0.024
52 | AGCAGCTA | 0.0562 ± 0.027
53 | AACATAAG | -0.0822 ± 0.0087
54 | CACTCAGG | -0.0788 ± 0.04
55 | AACCCACC | -0.215 ± 0.04
56 | GATACTTA | -0.121 ± 0.055
57 | CCAATCGA | 0.014 ± 0.016
58 | AATCGCTA | 0.151 ± 0.0042
59 | CCTAAAGC | -0.0817 ± 0.036
60 | TGAACTCA | -0.0105 ± 0.0096
61 | GCCCTGAA | -0.142 ± 0.03
62 | ATCCATAC | -0.386 ± 0.031
63 | GGGAGTAC | -0.0915 ± 0.074
64 | ACCCAACG | 0.00232 ± 0.017
65 | GGGTAGAA | -0.0697 ± 0.013
66 | ATGAAATA | -0.012 ± 0.042
67 | ATATGGAC | -0.188 ± 0.05
68 | CCCATTCC | -0.145 ± 0.061
69 | GCAGGCCC | -0.257 ± 0.013
70 | CTTCAACC | -0.0697 ± 0.17
71 | AAGATTAG | -0.125 ± 0.036
72 | AAACTCCC | -0.161 ± 0.07
73 | ATTTTCGA | -0.176 ± 0.098
74 | GATGTCCC | -0.208 ± 0.02
75 | GCCTTAGC | 0.211 ± 0.024

Row | Sequence | PBM E-score of 8-mer
76 | GTGGTCTA | -0.211 ± 0.027
77 | CCTAACCC | -0.127 ± 0.05
78 | AACTAGAA | -0.000525 ± 0.0071
79 | GTCAGGAC | -0.000415 ± 0.072
80 | ACGATGCT | 0.0361 ± 0.088
81 | ACACCGTC | 0.32784 ± 8.5e-05
82 | AGCGCCCG | 0.0811 ± 0.037
83 | CTAGTAGA | -0.0181 ± 0.012
84 | CACGGCCC | 0.0295 ± 0.02
85 | CTTGGGAA | -0.0378 ± 0.031
86 | AATAGAAC | -0.102 ± 0.035
87 | GCGTTGAA | 0.143 ± 0.026
88 | CAGTTGAC | 0.212 ± 0.076
89 | CCGCGCCA | 0.0276 ± 0.0065
90 | AACCGCGT | 0.00231 ± 0.048
91 | CACGTTCG | 0.234 ± 0.019
92 | CTAGGAGA | -0.123 ± 0.014
93 | ATACAAAC | -0.136 ± 0.0033
94 | CACAGGTC | 0.15 ± 0.028
95 | ATAGGCCG | -0.138 ± 0.03
96 | GTACTTAA | -0.16 ± 0.011
97 | CCCCTAAG | -0.0688 ± 0.042
98 | GAATTGGA | 0.0194 ± 0.0076
99 | CGTTGCCC | -0.109 ± 0.014
100 | CATGAACC | -0.0747 ± 0.069

Row | Sequence | PBM E-score of 8-mer
101 | CACGTAGC | 0.125 ± 0.054
102 | TGACTCCA | -0.253 ± 0.061
103 | TTAATAAA | -0.182 ± 0.079
104 | GTAATGGA | -0.128 ± 0.016
105 | GACCATGC | -0.0781 ± 0.035
106 | AAGACTTC | -0.0693 ± 0.0056
107 | CCGTCAGG | 0.184 ± 0.035
108 | CCGATACG | -0.232 ± 0.019
109 | ACTCCTGG | 0.13 ± 0.079
110 | GGCGCCGA | 0.146 ± 0.08
111 | AACGAACA | -0.0901 ± 0.0097
112 | AGCCTGCC | -0.0173 ± 0.019
113 | TCCAAAAA | -0.158 ± 0.061
114 | CAACGTCA | 0.0459 ± 0.035
115 | GAGACCGA | -0.0758 ± 0.029
116 | AGTGACCG | -0.0399 ± 0.021
117 | GCCTAGGC | -0.0856 ± 0.14
118 | ACGTCTAG | -0.118 ± 0.028
119 | CCTGGCTC | -0.0752 ± 0.086
120 | ACTCACGG | 0.0497 ± 0.064
121 | CCGACGAA | 0.0364 ± 0.0036
122 | ACCGTGGA | 0.0623 ± 0.014
123 | CAGTAAGA | -0.152 ± 0.0051
124 | AGTGGTGC | 0.141 ± 0.044
125 | AGGTGAGC | 0.303 ± 0.042

Row | Sequence | PBM E-score of 8-mer
126 | ACCCCCTG | 0.0477 ± 0.028
127 | GCCTGACC | -0.0775 ± 0.032
128 | GTCAACCA | 0.0402 ± 0.067
129 | ATGACGAC | 0.15 ± 0.029
130 | CGTCATTA | -0.079 ± 0.066
131 | AACCAACA | 0.0696 ± 0.053
132 | CGTTTATC | 0.158 ± 0.03
133 | ATCATCCC | -0.119 ± 0.03
134 | ACTAAACA | 0.0222 ± 0.01
135 | ATAGTGGG | -0.0524 ± 0.0065
136 | ACCACGCG | 0.1217 ± 0.0011
137 | CGCGTGGA | 0.148 ± 0.055
138 | CGTGGCAG | 0.00281 ± 0.052
139 | GTTAGGGA | -0.0525 ± 0.1
140 | GGATCTGA | -0.208 ± 0.0052
141 | ACCCTGAC | 0.106 ± 0.017
142 | ATTCGTCA | 0.262 ± 0.0094
143 | AGTATCTA | -0.127 ± 0.0036
144 | CCTTAGGC | -0.0445 ± 0.043
145 | AGTGTGCG | 0.222 ± 0.014
146 | ACGATTCC | 0.101 ± 0.02
147 | ATGGTGTC | 0.383 ± 0.02
148 | ATGGTATC | -0.126 ± 0.02
149 | GTTATTGA | -0.00208 ± 0.026
150 | CAATGGGA | -0.147 ± 0.033

Row | Sequence | PBM E-score of 8-mer
151 | CGCCTAGA | 0.072 ± 0.015
152 | CATAGGCA | -0.278 ± 0.051
153 | GGGAAGTA | -0.149 ± 0.047
154 | TCCCCGAA | -0.125 ± 0.0032
155 | GGTCCTAA | -0.119 ± 0.018
156 | CAATCGCA | 0.14 ± 0.014
157 | ACGACTCA | -0.0401 ± 0.03
158 | CCGCTGTA | -0.093 ± 0.022
159 | CGCCCACG | -0.0848 ± 0.045
160 | GACGCATC | -0.0679 ± 0.071
161 | GTCACTTA | 0.332 ± 0.004
162 | ATGGGCCG | -0.263 ± 0.12
163 | TTAATTAA | -0.0918 ± 0.023
164 | AAGATTAT | -0.134 ± 0.074
165 | GATTATTA | -0.231 ± 0.024
166 | AATTTAGA | -0.0662 ± 0.0039
167 | CCGGGTCC | 0.057 ± 0.013
168 | TAATACAA | -0.134 ± 0.03
169 | GTTGCAGA | -0.0155 ± 0.071
170 | TTCTACAA | -0.175 ± 0.048
171 | TCCCTTAA | -0.205 ± 0.016
172 | TAGGTATA | 0.149 ± 0.0083
